This is an account of results in PMC12136788.

T1: UNK ZnF1-6 (called full-length) (human, UniProt Q9C0B0 30-357)
T1 sequence: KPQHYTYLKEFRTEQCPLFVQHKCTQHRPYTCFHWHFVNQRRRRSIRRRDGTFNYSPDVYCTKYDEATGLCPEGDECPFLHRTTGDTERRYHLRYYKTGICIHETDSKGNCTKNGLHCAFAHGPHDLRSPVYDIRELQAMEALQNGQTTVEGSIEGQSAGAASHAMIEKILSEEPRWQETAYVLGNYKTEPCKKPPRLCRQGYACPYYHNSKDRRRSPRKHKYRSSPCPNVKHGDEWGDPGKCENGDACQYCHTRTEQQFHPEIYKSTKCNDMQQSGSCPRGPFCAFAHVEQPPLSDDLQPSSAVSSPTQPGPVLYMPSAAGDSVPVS

B1: chr12:123586815:123586897:+|5pUTR_CDS|ENSG00000086598|msi1_unk|total|mutant (ssRNA)
RNA: GGGAGUUCUACAGUCCGACGAUCGAAUCCAGUGGGAAAUACACAUUUGCUGCUCACAUGGAUGGAACAUACAAAUUUUGUUUCCGUAACCGGAUGUCCACCAUGACUCCAAAAACCGUGAUGUUCACCAUUGAUAUUGGGGAGCAACAGAGGAUUGAGCAUCA
B2: ENSG00000198589:be:win_5601|CDS|ENSG00000198589|bound_else_gene|NA|bound_elsewhere_windowed (ssRNA)
RNA: GGGAGUUCUACAGUCCGACGAUCGAAGAAUGCAGGCCUUGCUUUUAUCGAACUUGUCAAUGAAGGAAGGUUGCUUAGCCAGACAAUGAAGGAUCAUCUAGUAAGAGUAGCAAAUGAAGCUGAAUUUAUCCUGAGCAGGCAGAGCAACAGAGGAUUGAGCAUCA
B3: chr6:105100707:105100870:-|3pUTR|ENSG00000112276|msi1|total|mutant (ssRNA)
RNA: GGGAGUUCUACAGUCCGACGAUCUGAGAUAUAUAUUUUCACAGUCUUUUCCCGAUAUAUUAUUGUUUUAACUUAACAAAUCUCCGCAAUCUCUCAAUGCCUUUUCACUUAUUUUUUUCCAAGUUAUGAUUCUUUUUCCUCACACAACAGAGGAUUGAGCAUCA
B4: chr6:25850458:25850620:-|CDS|ENSG00000124564|control|control|control (ssRNA)
RNA: GGGAGUUCUACAGUCCGACGAUCCUCAGAUCUCUACCCAUUUGGUCCAUAUGUUUAGGCUGUUUCAGCCAUCAAUGGUUAGUUAGCACAAUGGUUGUAUACAUACCAACUUACAUCAGCUCUGUGUACCAUGUUAACAUCAGACAACAGAGGAUUGAGCAUCA
B5: chr1:119801171:119802827:-|three_prime_utr|ENSG00000134193|control|control|control (ssRNA)
RNA: GGGAGUUCUACAGUCCGACGAUCAAUUCACAGAAAGGAUAAUGGAGUUUCUGUACAAGAUUUACCAGAAAGAGAGUGGUGUGUAGACAUGCCUGGAGCAGACACCUUGGAGCCGCUGACAGAAGGUGAAGCAGUCCAAGAAAACAACAGAGGAUUGAGCAUCA
B6: chr21:43756582:43756683:+|3pUTR|ENSG00000160209|msi1|FALSE|unique (ssRNA)
RNA: GGGAGUUCUACAGUCCGACGAUCGCAUUCGAACUUUUGGUUCUUACUUUGCUGCUCGUUUAGUCCCUGGGGAUUUCAGAUCUUAGGCUGUUGUUUCACCGUAUGGGAGGGUUGAUGUGAGCUUGCUUGGAGACACACGGUGCACAACAGAGGAUUGAGCAUCA

This is one part of the list.

For the test, the target named is T1, UNK ZnF1-6 (called full-length). Nature of the test: nsRBNS (natural sequence RNA bind-n-seq); RBNS binding buffer (assumed for nsRBNS): 25 mM Tris pH 7.5, 150 mM KCl, 3 mM MgCl2, 0.01% Triton X-100, 500 ug/ml BSA, 20 U/ml SUPERase-In, 4 C; UNK is unkempt and MSI1 is Musashi-1; names of the RNAs are library labels; protein concentration not given here; high values mean tight binding.
With B1, the binding signal was 0.4 enrichment R.

The molecule B2 came in with a binding signal of 1 enrichment R.

As to B3, the binding signal amounted to 3.08 enrichment R.

As for B4, the binding signal came out at 0.347 enrichment R.

Regarding B5, the binding signal stood at 0.627 enrichment R.

B6 registered a binding signal of 0.894 enrichment R.
